Laboratory results: the supplement of paper PMC11417369
± gives the standard deviation of the averaged measurements. This is one part of the list.

What follows are sequences tested on PfAP2-G AP2 domain (GST-tagged) (assay: gcPBM binding intensity (ln(normalized median fluorescence intensity)); higher = stronger DNA binding).
Procedure, shortened: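 GST-tagged P. falciparum DNA-binding domains, expressed in E. coli (about 25 μg on average), were applied for 1 h to an Agilent 4 × 180k array of primer-extended double-stranded 36-bp intergenic genomic probes plus negative controls. The binding buffer was 1× PBS with 1% milk, 0.2 mg/ml BSA, 0.5% salmon testes DNA and 0.03% Triton X-100. Bound protein was detected with Alexa488 anti-GST antibody and scanned at 488 nm. Binding intensity is the highest Masliner-normalised natural-log median intensity across replicate spots of either probe orientation.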

Sequence | gcPBM binding intensity (ln)
ATTTATATTACAAAAAGTACACACATAAATAAATAC [XGTACX_site1827] | 11.6 ± 0.92
CAATCATAGAAAAACAGTACGTGTAGCAAACATCCT [XGTACX_site4889] | 10.8 ± 0.45
TATAATATATTATAACGTACAAATATATATATAAAA [XGTACX_site6581] | 11 ± 0.65
AAAAAAAAAAAATATATATATATATATATATATATA [CACACA_negctrl_site1606] | 9.81 ± 0.73
TATTAATCATATAAATGTACGTATATATATTTTTCT [XGTACX_site1421] | 11.4 ± 0.86
ATATATATATATATAACACACGTGTATATATATGTA [CACACA_site3644] | 10.2 ± 0.33
TATATATATATATGGGGTACAAATGGTCAGTATTAT [XGTACX_site1223] | 11.7 ± 0.97
ATGTTATTAAAAAAGGGTACACATCTTTTATGTTAA [XGTACX_site812] | 11.4 ± 0.88
AATATGTAATAGTGTACACATATATCTGTATTTATG [CACACA_site4252] | 11.6 ± 0.91
TTTAAATATAATTGGAGTACTTATAATATATATATA [XGTACX_site7247] | 11.5 ± 0.95
ATTACACATATAGTAGTGCAATAACTCCAAAAAAAA | 10.3 ± 0.3
AAAATCTAGGTATTTATACACACTAAAATAATATAC [CACACA_site623] | 10.1 ± 0.13
CAAATACAGAAACACACACACATATACATATATATA [CACACA_site3498] | 9.87 ± 0.12
AAAAAAAAATTATATACACACATATAAATATATATA [CACACA_site1197] | 9.57 ± 0.099
CTATATAATATGAGCACACATAAGATTTGGTGTTAT [CACACA_site744] | 10.01 ± 0.028
GAAAATATAAAAAAAAGTACATTTTCTCTAAATATA [XGTACX_site2441] | 11.1 ± 0.75
AAAAAGGGTATTATTACACACACGTAAATATTAAGA [CACACA_site4233] | 10.13 ± 0.071
AATTTTTTTTTATTGTGTACTTATTTTTTTATATTT [XGTACX_site917] | 11.7 ± 0.88
ATGTTATATATGTATTGTACGTATTTTGTATATTAT [XGTACX_site6607] | 11.6 ± 1.1

Sequence | gcPBM binding intensity (ln)
AGTGTTTTTTATAAAGTGCAATATAAAAACAAAATG | 10.4 ± 0.35
TTTTATTTCATTTGTTGTACTTTCAAAATATTATTA [XGTACX_site2192] | 11.3 ± 0.79
AAGAATAAAGAATGGTGTACATGCATATAAAATATT [XGTACX_site5707] | 11.4 ± 0.74
ACATACATATGTAAATGTACAAAATATCCATAGATT [XGTACX_site2782] | 10.8 ± 0.45
ATATACTCATTAATAACACACAATATGATAACAAAT [CACACA_site5913] | 10.07 ± 0.071
CAACATATGCATATGTGTACATATTTTATTTTCAAC [XGTACX_site2237] | 11.7 ± 1.1
AATATATTTCATTTTTGTACACACAACGTTGGAGGG [XGTACX_site6461] | 11.3 ± 0.69
TTTTTTTTTTTTTTTTTTTGTCTTATATATTACGGA [CACACA_negctrl_site322] | 9.64 ± 0.67
GCTACACAATTTTTTAGTACACACATATAAATATAT [XGTACX_site3131] | 11.4 ± 0.95
ATAATGTAGAACTAGAGTACATAAAAAAATAAACAT [XGTACX_site5205] | 11.5 ± 0.96
TTTTTCATATTATACTTTTATATACATATATAAAAA [XGTACX_negctrl_site281] | 10.3 ± 0.45
TAAAGATTGTTCAGTGCATGTTGGCCTGTAAATGGA [TGCATGCA_site315] | 10.2 ± 0.18
TATATATTATCAAGTGGACACACGAAAAAAAGGAAA [CACACA_site3741] | 11 ± 0.74
GTAATTTTGAGATGATGTACATATTTTTTCCTTGTC [XGTACX_site4103] | 11.3 ± 0.86
TAAGATATATTTTTTTGTACACATAATAAAATAATA [XGTACX_site8938] | 11.2 ± 0.68
GATAAATCATATATAACACACATATGAATATTACAA [CACACA_site1321] | 9.82 ± 0.071
AAAAGAAACTTATTTACGCACACTTTATTGCATGTT [CACACA_site3887] | 10.24 ± 0.042
TATACATATATTATATGTACATATATATATAATATA [XGTACX_site2942] | 11.2 ± 0.76
TTAAAGCTGACATATACACACATACATAAATTCATA [CACACA_site5377] | 10.1 ± 0.12

Sequence | gcPBM binding intensity (ln)
GGACAAGTTTTTTACATAAATAAAAAAAATAAAAAA [XGTACX_negctrl_site125] | 10.22 ± 0.057
ATATATATATAATAAACACACAAATAGATATAACAT [CACACA_site3715] | 10.1 ± 0.11
CCCCCCCACAGACACACACACATACATACCACATAT [CACACA_site2306] | 11.8 ± 0.76
CGAACAAACAAATAAACACACAAAAAAAAATATATA [CACACA_site1825] | 9.73 ± 0.21
ATACTTATGATAAATACACACTTGAAATTAAGGATT [CACACA_site4772] | 10.05 ± 0.042
AATGTGAAAAAAAAAAGTACAGACCTAATCAAAAAA [XGTACX_site2486] | 11.5 ± 0.77
AAAAAAAATACATACACACACACACCCACATATATA [CACACA_site3561] | 10.3 ± 0.29
AATATAAAAAAAGAGGAGGGATGGTATACTTGTGGT [CACACA_negctrl_site986] | 10.1 ± 0.11
ATAGAAGGCAACTTGGTGCACAAAAAAAAAAATAAT | 10.5 ± 0.33
CTGGAGTTAAAAATGTGTACCTAAAAAATTTTGTTC [XGTACX_site5554] | 11.3 ± 0.81
ATTATTATATATAAAACACACAATTTTGTTTTCACA [CACACA_site3965] | 9.83 ± 0.042
ATTTTTTAAAAAAACATACACACAAAAAAAAAAAAA [CACACA_site3936] | 9.96 ± 0.45
CATAATATCTCTTTGTGTACATATAGTTATTATTAT [XGTACX_site7688] | 11.4 ± 0.82
ATATAATAATATTAAAGTACATGCATATATATTTAT [XGTACX_site7422] | 10.9 ± 0.54
ACTATTTAAATGCAAAGTACTTTGATAATAAACAAT [XGTACX_site2608] | 11 ± 0.58
TAATATAACAAAAAAATAAAATAAAATAAAAAATAA [CACACA_negctrl_site109] | 9.57 ± 0.085
TATAAACATAAATATACACACAAACATATAGGTATT [CACACA_site6690] | 9.925 ± 0.092
GTATTTTTAAATGACACACACATATATAAATATGTA [CACACA_site6880] | 10.2 ± 0.15
ACAAAAATAAGCAAATGTACATATGTATAATATATT [XGTACX_site2492] | 10.9 ± 0.48
